Laboratory results published in publication PMC6919601, “Identification of Plasmodium dipeptidyl aminopeptidase allosteric inhibitors by high throughput screening” (PLoS ONE, 2019).
Among all 110,000 compounds or so, about 230 (0.21%) showed an effect of 50% or more. Some of the results follow.
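Note: 30 min substrate incubation versus DMSO and 10 µM JCP410 controls.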

These compounds were tested against DPAP1 (Plasmodium falciparum, UniProt Q8IIJ9) (assay: primary screen, percent inhibition; read by cleavage of a fluorogenic dipeptide substrate; higher = more effect of the substance).
Sequence of DPAP1 (Q8IIJ9 whole entry, looked up): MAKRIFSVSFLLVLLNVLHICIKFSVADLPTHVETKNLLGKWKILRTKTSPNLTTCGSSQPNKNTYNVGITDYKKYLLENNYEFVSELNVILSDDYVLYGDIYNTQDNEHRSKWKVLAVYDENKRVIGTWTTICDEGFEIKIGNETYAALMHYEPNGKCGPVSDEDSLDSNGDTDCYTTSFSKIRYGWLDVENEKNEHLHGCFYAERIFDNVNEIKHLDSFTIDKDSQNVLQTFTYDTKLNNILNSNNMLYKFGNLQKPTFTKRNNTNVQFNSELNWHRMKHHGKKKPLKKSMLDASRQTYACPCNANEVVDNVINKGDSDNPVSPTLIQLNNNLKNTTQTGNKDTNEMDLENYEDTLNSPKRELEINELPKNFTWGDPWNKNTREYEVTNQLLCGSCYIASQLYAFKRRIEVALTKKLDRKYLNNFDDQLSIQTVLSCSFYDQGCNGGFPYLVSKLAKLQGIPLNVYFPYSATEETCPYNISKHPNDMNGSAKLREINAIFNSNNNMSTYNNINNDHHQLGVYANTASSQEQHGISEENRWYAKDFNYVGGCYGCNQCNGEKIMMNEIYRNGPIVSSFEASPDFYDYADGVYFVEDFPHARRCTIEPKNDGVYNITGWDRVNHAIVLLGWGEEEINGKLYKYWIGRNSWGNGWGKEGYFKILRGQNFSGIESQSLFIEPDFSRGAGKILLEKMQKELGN
Set-up: species or system P. falciparum D10 trophozoite lysates; single well
In the case of `CC1CCC(NS(=O)(=O)c2ccc(-n3cccn3)cc2)CC1` (stereo not shown), the “% Inhibition @ 10 uM” value was 0.0855%. In the case of `CC1C/C(=C\C=C\N(C)C)C(=O)/C(=C/C=C/N(C)C)C1` (stereo not shown), the “% Inhibition @ 10 uM” value was 4.84%. For `Cc1ccc(CSc2nc3ncccc3c(=O)n2CC2CCCO2)cc1` (stereo not shown), the “% Inhibition @ 10 uM” value was -1.66%. For `CC1CN(C2=NC(=O)/C(=C\c3ccc(N(C)C)cc3)S2)CC(C)O1` (stereo not shown), the “% Inhibition @ 10 uM” value was 8.05%. For `CC(C)C[C@H](NC(=O)c1ccc(-c2ccccc2)cc1Cl)C(=O)NCC#N`, the “% Inhibition @ 10 uM” value was -5.2%. `CCOc1ccc(C2C3=C(O)CCCC3=NC(C)=C2C(=O)N2CCCCC2)cc1OC` (stereo not shown) was tested, and the “% Inhibition @ 10 uM” value was -3.23%. In the case of `Cc1cc(C(=O)NCCc2ccccc2)no1`, the “% Inhibition @ 10 uM” value was 2.98%. With `Cc1ccc(N2/C(=N/C(=O)c3ccccc3)SC3CS(=O)(=O)CC32)cc1` (stereo not shown) the “% Inhibition @ 10 uM” value was 0.709%. For `O=C1NCCCC[C@@H]1Nc1ccccn1`, the “% Inhibition @ 10 uM” value was -3.09%. With `O=C(O)C1CC(c2ccc(Br)cc2)=Nc2ccccc2S1` (stereo not shown) the “% Inhibition @ 10 uM” value was -13.3%. `CCc1ccc(C2=CC(c3ccc(OC)c(OC)c3OC)n3ncnc3N2)cc1` (stereo not shown) was tested, and the “% Inhibition @ 10 uM” value was -1.62%. In the case of `CCOc1cc(/C=C2/SC(=O)N(CC(=O)Nc3ccccc3C)C2=O)ccc1O`, the “% Inhibition @ 10 uM” value was -0.865%. With `CN(C)CCCN1C(=O)CSC1c1ccc(Br)cc1` (stereo not shown) the “% Inhibition @ 10 uM” value was 6.18%. For `CCOc1ccc(CCNC(=O)CCc2c(C)nc3c4cccnc4nn3c2C)cc1`, the “% Inhibition @ 10 uM” value was -3.45%. `COc1ccc2c(Cl)c(C(=O)Nc3ccc(NC(C)=O)cc3)sc2c1` was tested, and the “% Inhibition @ 10 uM” value was -2.83%. For `CC(C)(C)c1ccccc1OCCCCCN1CCOCC1`, the “% Inhibition @ 10 uM” value was -2.54%. For `COc1c(O)cnn(C(C)(C)C)c1=O`, the “% Inhibition @ 10 uM” value was -3.67%. For `Cc1cc(-c2noc(/C=C/c3ccc(F)cc3)n2)c2ccccc2n1`, the “% Inhibition @ 10 uM” value was 1.32%. For `Cc1c(C(=O)NCc2ccc3c(c2)OCO3)oc2ccc3c(c12)C(=O)CC1(CCCCC1)O3`, the “% Inhibition @ 10 uM” value was -4.68%. In the case of `Cc1cc(=O)n2nc(N3CCCC(C(=O)NC4CCCc5ccccc54)C3)sc2n1` (stereo not shown), the “% Inhibition @ 10 uM” value was 1.38%. For `CC(C)CSCCc1ccncc1`, the “% Inhibition @ 10 uM” value was 3.34%. For `CCCN(CCC)S(=O)(=O)c1ccc(NC(=O)c2ccc(Br)cc2)cc1`, the “% Inhibition @ 10 uM” value was 2.13%. `CCOC(=O)c1ccc(N2C(=O)C3C(c4ccc(C)cc4)OC4(C(=O)c5ccccc5C4=O)C3C2=O)cc1` (stereo not shown) was tested, and the “% Inhibition @ 10 uM” value was 38%. In the case of `COc1ccc(CCC(=O)Nc2cccc3ccc(C)nc23)cc1`, the “% Inhibition @ 10 uM” value was -3.71%. `Cc1ccc(CNC(=O)CN(c2ccc(F)cc2)S(=O)(=O)c2ccc3c(c2)OCCO3)cc1` was tested, and the “% Inhibition @ 10 uM” value was -1.61%. In the case of `COc1ccc(/C=C(/NC(=O)c2ccc(C)cc2)C(=O)N2CCOCC2)cc1OC`, the “% Inhibition @ 10 uM” value was 2.45%. With `CCCCc1[nH]nc2c1C1(CCN(C(=O)c3ccccc3)CC1)C(C#N)=C(N)O2` the “% Inhibition @ 10 uM” value was 0.722%. With `Cc1cc(C)c(C2=CC(C(F)F)=NCCN2)c(O)n1` the “% Inhibition @ 10 uM” value was 3.38%. `O=C1NC(=S)N/C1=C\c1cccnc1` was tested, and the “% Inhibition @ 10 uM” value was -5.61%. In the case of `CC1(C)CC(=O)C2=C(C1)OC(N)=C(C#N)C2c1cccc(OCc2ccccc2)c1` (stereo not shown), the “% Inhibition @ 10 uM” value was 1.4%. With `N#Cc1ccc(CSc2nc(O)cc(-c3ccccc3)n2)cc1` the “% Inhibition @ 10 uM” value was 3.79%. With `CC(=O)[C@@]1(O)C(C)CC2C3CCC4CC(O)CCC4(C)C3CCC21C` (stereo partly shown) the “% Inhibition @ 10 uM” value was 1.88%. In the case of `CCOC(=O)c1c(C)[nH]c(C)c1S(=O)(=O)N(C)CC(=O)N1CCC(Cc2ccccc2)CC1`, the “% Inhibition @ 10 uM” value was 2.74%. `CCOC(=O)C1=C(C)NC(=O)NC1c1cn(-c2ccccc2)nc1-c1ccc(OC)c(Cl)c1` (stereo not shown) was tested, and the “% Inhibition @ 10 uM” value was 4.74%. With `CCOC(=O)N1CCN(C2=C(NC(C)=O)C(=O)c3ccccc3C2=O)CC1` the “% Inhibition @ 10 uM” value was -3.04%. For `CC(C)c1ccc(C2c3c(-c4ccccc4O)n[nH]c3C(=O)N2CC2CCCO2)cc1` (stereo not shown), the “% Inhibition @ 10 uM” value was 0.366%. With `COc1ccc(N2CCN(C(=O)CCN3C(=O)c4cccc5cccc(c45)C3=O)CC2)cc1` the “% Inhibition @ 10 uM” value was 31.6%. In the case of `O=C1NC(=S)N(C(=O)c2ccc(F)cc2)/C1=C/c1ccccc1`, the “% Inhibition @ 10 uM” value was 0.98%. For `O=C(Cn1nc(Cc2cccnc2)c2ccccc2c1=O)N1CCN(c2ccccn2)CC1`, the “% Inhibition @ 10 uM” value was -6.52%. In the case of `COC(=O)C1=C(C)N(C)C(=O)/C1=C\c1ccc(Cl)c(Cl)c1`, the “% Inhibition @ 10 uM” value was -1.6%. In the case of `Cn1nc(C(=O)NC2CCCc3ccccc32)c2c1-c1ccccc1S(=O)(=O)C2` (stereo not shown), the “% Inhibition @ 10 uM” value was 6.84%. For `C=CCNC(=O)CN(c1ccc(C)cc1)S(=O)(=O)c1ccc(OC)c(Br)c1`, the “% Inhibition @ 10 uM” value was -4.91%. With `Clc1ccc(-n2nnnc2-c2ccccc2)cc1Cl` the “% Inhibition @ 10 uM” value was -3.14%. `COC(=O)C1=C(C)N(CC(C)C)C(=O)/C1=C\c1cc(C)n(-c2ccccc2C)c1C` was tested, and the “% Inhibition @ 10 uM” value was -5.51%. For `Cc1cccc(N2C(=O)C3CC=CC(C)C3C2=O)c1` (stereo not shown), the “% Inhibition @ 10 uM” value was 6.1%. In the case of `O=C1CC(N2CCN(Cc3ccccc3)CC2)C(=O)N1c1cccc(Br)c1` (stereo not shown), the “% Inhibition @ 10 uM” value was 1.76%. `O=C(NCCc1ccccc1)c1cc(-c2ccc(F)cc2)on1` was tested, and the “% Inhibition @ 10 uM” value was -3.36%. For `COc1ccc(CN2CCN(S(=O)(=O)c3ccccc3)CC2)cc1OC`, the “% Inhibition @ 10 uM” value was 2.98%. With `c1ccc(NCC2COc3ccccc3O2)nc1` (stereo not shown) the “% Inhibition @ 10 uM” value was 1.43%.
